Laboratory results: PubChem BioAssay AID720709 (National Center for Advancing Translational Sciences (NCATS), 2013)
In all, about 360,000 compounds went through this assay and about 520 (0.14%) were called active. This list was built around the results that the source calls inconclusive (neither active nor inactive); the mix of calls is not that of the screen. The call rests on the fitted dose curve; in most records, active means well fitted inhibition curve with a large enough effect; inconclusive means small, poorly fitted or top-dose-only effect; inactive means no such curve, though single readings can be large or run the other way. Potencies of inconclusive entries are left out as doubtful fits.

Each compound was assayed against Rap guanine nucleotide exchange factor 3 (Homo sapiens) (UniProt O95398) (assay: qHTS for Antagonist of cAMP-regulated guanine nucleotide exchange factor 3 (EPAC1): primary screen). Details: EPAC1 GEF assay, Rap1b-BODIPY-GDP exchange fluorescence; activity change, negative = inhibition: at 115 µM (top of the series).
Further: nearly all actives have a fitted effect of over 50% in size.
Potency means the concentration at half of the fitted maximal effect; tags describe the fitted curve by direction and shape.
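Wherever activity change, negative = inhibition is given: plate controls were vehicle for no effect and positive control for full effect.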

UniProt O95398, sequence (O95398 whole entry, looked up): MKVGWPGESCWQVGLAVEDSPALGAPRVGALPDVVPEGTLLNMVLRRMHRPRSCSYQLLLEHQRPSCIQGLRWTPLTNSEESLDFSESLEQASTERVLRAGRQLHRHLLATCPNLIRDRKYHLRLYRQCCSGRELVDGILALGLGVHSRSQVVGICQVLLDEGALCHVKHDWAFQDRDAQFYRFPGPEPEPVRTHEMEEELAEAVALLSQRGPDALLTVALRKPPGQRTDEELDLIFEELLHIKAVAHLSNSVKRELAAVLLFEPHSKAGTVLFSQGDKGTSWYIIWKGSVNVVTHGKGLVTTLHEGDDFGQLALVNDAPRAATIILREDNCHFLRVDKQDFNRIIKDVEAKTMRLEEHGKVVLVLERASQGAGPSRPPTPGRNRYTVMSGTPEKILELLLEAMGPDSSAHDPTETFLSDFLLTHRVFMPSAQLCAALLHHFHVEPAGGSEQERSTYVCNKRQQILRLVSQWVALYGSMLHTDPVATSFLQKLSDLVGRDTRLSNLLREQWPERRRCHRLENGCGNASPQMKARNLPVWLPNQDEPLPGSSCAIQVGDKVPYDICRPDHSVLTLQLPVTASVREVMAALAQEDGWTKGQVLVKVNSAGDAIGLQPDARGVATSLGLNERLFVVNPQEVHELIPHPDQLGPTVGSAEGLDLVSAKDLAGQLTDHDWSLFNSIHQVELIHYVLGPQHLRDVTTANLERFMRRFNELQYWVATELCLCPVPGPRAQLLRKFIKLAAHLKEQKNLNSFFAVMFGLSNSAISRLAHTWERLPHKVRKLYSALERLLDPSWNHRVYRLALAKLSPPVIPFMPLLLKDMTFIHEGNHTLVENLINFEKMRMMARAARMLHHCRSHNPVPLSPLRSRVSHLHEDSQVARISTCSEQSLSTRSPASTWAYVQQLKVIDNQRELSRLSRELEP

| Compound | activity change, negative = inhibition | Potency |
| --- | --- | --- |
| CCc1cccc(CC)c1N1C(=O)C2=C(SCCCS2)C1=O | inactive: -1.93% |  |
| COc1c(C)cc(C(=O)C2CCCN(C(=O)c3ccc4[nH]ccc4c3)C2)cc1C (stereo unspecified) |  | inconclusive [inhibitor, full curve] |
| O=C(OCC(=O)N1CCN(c2ccc(F)cc2)CC1)c1cnc2ccccc2n1 |  | inconclusive [inhibitor, single point] |
| N#Cc1ccc(C(=O)NCCCSc2ccccc2)cc1 | inactive: -9.83% |  |
| COC(C(=O)Nc1ccc(S(=O)(=O)Nc2ccc(F)cc2)cc1)c1ccccc1 (stereo unspecified) |  | inconclusive [inhibitor, partial curve] |
| Cc1cc(Nc2ccccc2)n(-c2nc3ccccc3[nH]2)n1 | inactive: -10.3% |  |
| O=C(CSc1nnc2ccc(-c3ccccc3)nn12)NCC1CCCO1 (stereo unspecified) |  | inconclusive [inhibitor, full curve, poor fit] |
| O=C(O)c1cccc(CN2C(=O)S/C(=C/c3ccccc3[N+](=O)[O-])C2=O)c1 |  | inconclusive [inhibitor, partial curve] |
| CCOC(=O)C1=CCN(S(=O)(=O)c2ccc(C)cc2)C1c1ccc(CC)cc1 (stereo unspecified) |  | inconclusive [inhibitor, partial curve, poor fit] |
| O=[N+]([O-])c1ccc(CN2CCOCCOCCN(Cc3ccc([N+](=O)[O-])cc3)CCOCC2)cc1 | inactive: 1.53% |  |
| O=C(O)C1=C(OCc2ccc(F)c(F)c2)C(=O)NCC1 | inactive: -1.91% |  |
| Cc1ccc(S(=O)(=O)/N=C2/NC(=O)/C(=C\c3cc(Br)cc(Br)c3O)S2)cc1 |  | inconclusive [inhibitor, full curve] |
| O=C(NCc1ccccc1)C1=C[C@H](c2ccccc2)C[C@H](OCc2ccc(CO)cc2)O1 |  | inconclusive [inhibitor, partial curve] |
| N/C(=N\OC(=O)COc1ccccc1)c1cccnc1 | inactive: 4.04% |  |
| CCCCCNC(=O)c1ccc2c(=O)[nH]c3c(C(=O)NCC4CCCO4)sc(=S)n3c2c1 (stereo unspecified) |  | inconclusive [inhibitor, single point] |
| CCOC(=O)/C=C(\C)Sc1cc(=O)oc2ccccc12 | inactive: 0% |  |
| COc1cccc(CNC(=O)C2CCN(S(=O)(=O)c3ccccc3)CC2)c1 | inactive: -1.17% |  |
| NC(=O)C1CCN(C(=O)CSc2nc3ccccc3[nH]2)CC1 | inactive: 11% |  |
| Cc1ccc2c(C(=O)CN3CCOCC3)c(C)[nH]c2c1 |  | inconclusive [inhibitor, single point] |
| CC(NC(=O)c1ccco1)c1cccc2ccccc12 (stereo unspecified) |  | inconclusive [inhibitor, single point] |
| O=C(NCCCc1ccccc1)c1cccc(Br)c1 | inactive: -2.1% |  |
| COc1cccc(CN(C)C(=O)c2cccc(S(=O)(=O)Nc3cccc(C)c3)c2)c1OC |  | inconclusive [inhibitor, partial curve, poor fit] |
| Cc1nn(-c2ccccc2)c(C)c1/C=N/NC(=O)c1ccccc1NS(=O)(=O)c1cccs1 |  | inconclusive [inhibitor, partial curve, poor fit] |
| Cc1cc(C)c(S(=O)(=O)N2CCN(C(=O)CC(C)n3nc(C)nc3C)CC2)c(C)c1 (stereo unspecified) | inactive: 0.23% |  |

| Compound | activity change, negative = inhibition | Potency |
| --- | --- | --- |
| Cn1c(COc2ccccc2)nnc1SCC(=O)c1cccc([N+](=O)[O-])c1 | inactive: 2.19% |  |
| COc1ccc(/C=N\NC(=O)c2ccc([N+](=O)[O-])c(C)c2)cc1COc1ccccc1C(N)=O |  | inconclusive [inhibitor, single point] |
| N#CC(C(=O)NCc1ccco1)c1nc2ccccc2nc1N1CCOCC1 (stereo unspecified) |  | active: 79.4 µM |
| CC(C)(C)C(O)CN1CCCC1 (stereo unspecified) |  | inconclusive [inhibitor, partial curve] |
| COc1ccc(/C=N/NC(=O)c2nnn(-c3nonc3N)c2CN(C)c2ccccc2)cc1 |  | inconclusive [inhibitor, partial curve, poor fit] |
| Cc1ccc(NC(=O)CN(C)C(=O)COc2ccc(C(=O)c3ccc(F)cc3)cc2)cc1 |  | inconclusive [inhibitor, full curve, poor fit] |
| N=c1c2c(n(Cc3ccc(Br)cc3)c3c1CCC3)CCCC2 | inactive: 2.99% |  |
| CC(=O)c1c(C)oc2ccc(N(C(=O)C3CCCCC3)S(=O)(=O)c3cc([N+](=O)[O-])ccc3C)cc12 |  | inconclusive [inhibitor, single point] |
| COC(=O)c1cc(S(=O)(=O)N2CCN(Cc3ccccc3)CC2)c[nH]1 |  | inconclusive [inhibitor, single point] |
| COc1cccc2sc3ccc(C#CC4(O)CCCCC4)cc3c(=O)c12 |  | inconclusive [inhibitor, full curve] |
| O=S(=O)(NCc1ccccc1)c1ccc(Br)c2nsnc12 |  | inconclusive [inhibitor, single point] |
| COc1ccc(N(Cc2cc3cccc(C)c3[nH]c2=O)S(C)(=O)=O)cc1 | inactive: 5.97% |  |
| CO[C@@H]1CN(C)C(=O)c2cc(NC(=O)C3CC3)ccc2OC[C@H](C)N(C(=O)CN2CCOCC2)C[C@@H]1C | inactive: -0.664% |  |
| Cc1ccc(NC(=S)NCc2ccc3c(c2)cc(C)n3C)c(C)c1 | inactive: -27% |  |
| CCOc1ccc(C2C(C(=O)Nc3ccccc3)=C(C)N=c3s/c(=C/c4cccc(OCC(=O)O)c4)c(=O)n32)cc1 (stereo unspecified) |  | inconclusive [inhibitor, partial curve, poor fit] |
| O=C(CCN1C(=O)c2ccc([N+](=O)[O-])cc2C1=O)Nc1ccc(O)cc1C(=O)O |  | inconclusive [inhibitor, full curve] |
| COc1ccc(/C=C2\SC(c3ccc(C)cc3)=NC2=O)cc1OC | inactive: 14.9% |  |
| CN1C(=O)CC(N2CCC(C(N)=O)CC2)C1=O (stereo unspecified) | inconclusive: -10.1% [inhibitor] |  |
| N#CC(C#N)=C1C=C2C=C(N3CCCCCC3)CCC2CC1 (stereo unspecified) | inactive: 135% |  |
| Cc1ccsc1/C=N/NC(=O)c1ccccn1 | inactive: -5.16% |  |
| CC(C)OC(=O)c1ccc(NC(=O)C2C3CC4OC(=O)C2C4C3)cc1 (stereo unspecified) | inactive: 0.76% |  |
| CC1Cc2nc(SCC(=O)NCc3ccccc3)n(Cc3ccccc3)c(=O)c2S1 (stereo unspecified) |  | inconclusive [inhibitor, single point] |
| Cc1ccc(S(=O)(=O)NCC(=O)OCC(=O)N2N=C(c3ccc(Cl)cc3)CC2c2ccco2)cc1C (stereo unspecified) | inactive: 3.16% |  |
| COc1ccc2[nH]c(=O)c(CN(C3CCCCC3)C(c3nnnn3Cc3ccco3)C(C)C)cc2c1 (stereo unspecified) |  | inconclusive [inhibitor, partial curve] |

| Compound | activity change, negative = inhibition | Potency |
| --- | --- | --- |
| CC(C)CNC(=O)C1Nc2ccc(OC(F)(F)F)cc2C2C=CCC12 (stereo unspecified) |  | inconclusive [inhibitor, partial curve] |
| FC(F)(F)c1cc(-c2ccc3c(c2)OCO3)nc(NCc2ccco2)n1 |  | inconclusive [inhibitor, single point] |
| Cc1ccc(CCNC(=O)Cn2ccc3cc(S(=O)(=O)N4CCCC4)ccc32)cc1 | inactive: -1.52% |  |
| O=C(NCC(F)(F)F)C1C(=O)Nc2ccccc2C(=O)N1Cc1ccccc1 (stereo unspecified) | inactive: -20.2% |  |
| COCc1nnc(NC(=O)c2cccc(NC(=O)c3ccccc3)c2)s1 |  | inconclusive [inhibitor, single point] |
| O=C(C[n+]1cccc(/C=N/O)c1)NC(=O)Nc1ccccc1 | inactive: -10.5% |  |
| COc1ccc(NC(=O)CSC2=NN3CCCC(=O)N=C3S2)c(OC)c1 |  | inconclusive [inhibitor, single point] |
| CCCCCc1ccc(-c2ccc(C(=O)O)cc2)nc1 |  | inconclusive [inhibitor, single point] |
| NS(=O)(=O)c1cccc(NC(=O)COC(=O)CCCc2c[nH]c3ccccc23)c1 |  | inconclusive [inhibitor, full curve, poor fit] |
| CCc1nnc(NC(=O)Cc2c[nH]c3ccccc23)s1 | inactive: -16.2% |  |
| O=S(=O)(NC1CCN(Cc2ccccc2)CC1)c1ccc2ccccc2c1 | inactive: -24.1% |  |
| O=C(CNc1ccccc1Cl)N/N=C1\CCCc2ccccc21 |  | inconclusive [inhibitor, single point] |
| O=C(C1CCCN(S(=O)(=O)c2ccccc2[N+](=O)[O-])C1)N1CCN(c2ccccc2)CC1 (stereo unspecified) | inactive: -20.5% |  |
| COc1ccc2[nH]c(C)c(CCNC(=S)Nc3cc(C)cc(C)c3)c2c1 |  | inconclusive [inhibitor, single point] |
| Cc1csc(NC(=O)CSc2nnc(Cc3cccn3C)n2CCc2ccccc2)n1 |  | inconclusive [inhibitor, single point] |
| Cc1ccc(/C=C/C(=O)c2ccccc(=O)c2O)c(C)c1 |  | inconclusive [inhibitor, partial curve, poor fit] |
| Cc1ccc(NC(=O)c2ccc(Br)o2)cc1S(=O)(=O)N(C)C |  | inconclusive [inhibitor, partial curve] |
| Cc1cc(C)cc(OC(C)C(=O)NCCCn2ccnc2)c1 (stereo unspecified) | inactive: 0.141% |  |
| CN(Cc1ccccc1)c1ncnc(N)c1[N+](=O)[O-] |  | inconclusive [inhibitor, single point] |
| Oc1ccccc1-c1nc(NCc2ccccc2)c2ccccc2n1 |  | inconclusive [inhibitor, single point] |
| N#C/C(=C\c1cn(CC(=O)O)c2ccccc12)C(=O)NCc1ccccc1 |  | inconclusive [inhibitor, single point] |
| O=C(c1ccc2c(c1)OCO2)C1CCCN(Cc2cc(F)ccc2-n2cccn2)C1 (stereo unspecified) | inactive: 3.81% |  |
| CCN1C(=O)[C@H]2[C@@H](c3ccc(-c4ccc(Cl)c(Cl)c4)cc3)N[C@@](C)(C(=O)OC)[C@H]2C1=O | inactive: -10.4% |  |
